Test results taken from publication PMC4336329 (PLoS ONE, 2015).
Hit rate of the full screen: of about 310,000 compounds, about 14,000 (4.5%) showed an effect of 50% or more. The effect is printed as a negative number. The list shows a part of the results.

These molecules were tested against human ether-à-go-go-related gene (hERG) potassium channel (human, UniProt Q12809) (assay: primary screen, population patch clamp on CHO cells stably expressing hERG).
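Note: peak tail current of the secondary pulse compared with the same well before compound.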

Chain of human ether-à-go-go-related gene (hERG) potassium channel (Q12809 whole entry, looked up): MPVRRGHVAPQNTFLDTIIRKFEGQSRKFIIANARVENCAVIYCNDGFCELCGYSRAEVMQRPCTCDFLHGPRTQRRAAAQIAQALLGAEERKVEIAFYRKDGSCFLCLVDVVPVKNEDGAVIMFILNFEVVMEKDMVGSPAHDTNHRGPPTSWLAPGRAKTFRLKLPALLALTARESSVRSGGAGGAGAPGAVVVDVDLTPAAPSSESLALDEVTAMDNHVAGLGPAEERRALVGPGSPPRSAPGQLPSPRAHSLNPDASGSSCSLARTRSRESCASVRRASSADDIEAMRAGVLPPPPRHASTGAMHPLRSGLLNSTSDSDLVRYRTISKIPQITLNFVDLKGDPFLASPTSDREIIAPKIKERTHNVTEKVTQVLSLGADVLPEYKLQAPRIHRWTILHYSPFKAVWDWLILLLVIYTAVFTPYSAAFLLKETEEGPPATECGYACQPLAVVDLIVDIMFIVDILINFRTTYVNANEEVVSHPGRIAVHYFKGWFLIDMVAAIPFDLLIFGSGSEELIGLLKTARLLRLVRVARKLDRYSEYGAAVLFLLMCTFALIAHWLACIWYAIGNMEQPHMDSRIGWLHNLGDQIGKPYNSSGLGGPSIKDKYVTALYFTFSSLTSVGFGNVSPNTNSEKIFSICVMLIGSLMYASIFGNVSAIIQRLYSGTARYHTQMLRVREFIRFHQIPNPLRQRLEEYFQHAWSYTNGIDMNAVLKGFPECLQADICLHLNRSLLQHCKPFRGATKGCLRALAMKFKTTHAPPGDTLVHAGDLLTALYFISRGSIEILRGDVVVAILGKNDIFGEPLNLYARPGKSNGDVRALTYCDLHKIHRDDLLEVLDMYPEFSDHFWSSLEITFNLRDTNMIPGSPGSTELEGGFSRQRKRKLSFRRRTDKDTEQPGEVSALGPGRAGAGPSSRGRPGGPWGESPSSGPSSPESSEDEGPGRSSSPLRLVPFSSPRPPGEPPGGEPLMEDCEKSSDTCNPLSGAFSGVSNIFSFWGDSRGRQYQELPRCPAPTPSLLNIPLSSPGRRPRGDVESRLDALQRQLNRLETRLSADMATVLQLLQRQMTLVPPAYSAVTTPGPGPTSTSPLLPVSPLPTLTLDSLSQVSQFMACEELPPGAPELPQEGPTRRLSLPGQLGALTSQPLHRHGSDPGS

Row | Structure (SMILES) | hERG current change (%, negative = inhibition) at 10uM [%]
1 | O=C(CCc1ccccc1)Nc1nnc(-c2cccs2)o1 | 22.6
2 | O=S(=O)(NCC1CC1)c1cc(Cl)cc(Cl)c1 | 12.1
3 | O=C(NCc1cn(-c2ccccc2)nc1-c1ccc(F)cc1)c1cccc([N+](=O)[O-])c1 | 8.31
4 | CCOC(=O)N1CCN(C2CCCN(C(=O)c3cccc(N(C)C)c3)C2)CC1 (centres unmarked) | 16.8
5 | CCOC(=O)C(=CNc1ccc(S(N)(=O)=O)cc1)C(=O)OCC | -2.11
6 | Cc1ccc(Cc2nnc3n(-c4ccccc4)nc(C(=O)c4ccccc4)n3c2=O)cc1 | -4.26
7 | CCOC(=O)C1CCN(C(=O)Cn2nc(C)n3nc(-c4ccc(OC)cc4)cc3c2=O)CC1 | 4.09
8 | N#Cc1cc2c(nc1SCC(=O)Nc1cc(Cl)ccc1Cl)C1CCN2CC1 | -51.7
9 | COCCn1c(SCC(=O)Nc2ccccc2OC)nc2c(oc3ccccc32)c1=O | -34
10 | NC(=O)CC(NC(=O)Cc1ccc(Cl)cc1)c1ccc(NC2CCCCCCC2)c([N+](=O)[O-])c1 (centres unmarked) | 16.7
11 | Cc1cc(C)cc(OCC(=O)NC(C)c2ccccc2)c1 (centres unmarked) | 15.2
12 | Fc1ccc(C2CCCN2Cc2nc(Cc3ccccc3F)no2)cc1 (centres unmarked) | -8.77
13 | COc1cc(CN2CCC(CO)(CCOc3ccccc3)CC2)cc(OC)c1OC | -38.3
14 | O=C(NCCCN1CCOCC1)C(c1ccccc1)c1ccccc1 | 15.6
15 | CC(C(=O)NCc1ccccc1)N1C(=O)c2ccccc2C1=O (centres unmarked) | 16.1
16 | CCN1CCCC(Sc2nc3c([nH]2)c(=S)n(C)c(=O)n3C)C1 (centres unmarked) | 8.96
17 | CC(=O)Nc1sc(N/N=C\c2cccc(Cl)c2)nc1-c1cccs1 | -3.54
18 | O=C(C(=C1N(Cc2ccc(Cl)nc2)CCN1Cc1ccc(Cl)nc1)[N+](=O)[O-])C(Cl)Cl | -26.6
19 | NC(=O)c1cnn(-c2cc(Oc3ccccc3)ncn2)c1N | 15.9
20 | CCN(CC)CCN1c2ccccc2Sc2ccccc21.O=C(O)C(=O)O | -41.3
21 | Cn1nnnc1Sc1ncnc2scc(-c3ccccc3)c12 | -23.4
22 | CC(c1ccco1)N(C(=O)c1ccc(F)cc1)c1ccccn1 (centres unmarked) | 22.9

Row | Structure (SMILES) | hERG current change (%, negative = inhibition) at 10uM [%]
23 | CCn1cc(C(=O)N2CCCC(N3CCN(c4ccccc4C)CC3)C2)cn1 (centres unmarked) | -7.66
24 | O=C(COC(=O)c1cc(=O)[nH]c2ccccc12)NCc1cccs1 | -3.12
25 | Cc1ccc(CNS(=O)(=O)c2ccc(F)c(F)c2)n1C | 15.3
26 | C/C(=N\O)c1ccc(Cl)cc1Cl | 3.42
27 | O=C(CN(Cc1cccs1)C(=O)c1csnn1)NC1CCCC1 | 1.83
28 | N#Cc1ccc(OCC(=O)NCCc2ccccn2)cc1 | -7.98
29 | COc1ccc(CCNc2cc(C)nc3c(-c4ccc(Cl)cc4)cnn23)cc1OC | 17.1
30 | CCOC(=O)Cc1csc(NC(=O)c2cc(C)cc(C)c2)n1 | -12.9
31 | CC(C)C(C)NC(=O)CN1C(=O)NC2(CCCc3ccccc32)C1=O (centres unmarked) | 4.87
32 | COc1ccc(C2/C=C\CN(S(=O)(=O)c3cccs3)CC(=O)N2Cc2ccc(F)cc2)cc1 (centres unmarked) | -0.276
33 | COc1ccc(S(=O)(=O)NCc2ccco2)c2ccccc12 | -9.68
34 | COC(=O)C(C)n1cnc2c(nnn2-c2ccc(F)cc2)c1=O (centres unmarked) | -13.2
35 | CC1CCCN(S(=O)(=O)c2ccc(NC(=O)CN3C(=O)NC(C)(c4ccccc4)C3=O)cc2)C1 (centres unmarked) | -6.49
36 | O=C(Nc1cccc([N+](=O)[O-])c1)c1ccccc1 | 7.97
37 | CCN(C(=O)CSc1nnc(C)n1Cc1ccccc1)C1CCS(=O)(=O)C1 (centres unmarked) | 21.1
38 | O=C(CNS(=O)(=O)c1ccccc1)N/N=C/c1ccncc1 | -0.283
39 | COc1cccc(OC)c1C(=O)NNC(=O)c1cccc(COc2ccc3c(c2)CCC3)c1 | -1.39
40 | CCOC(=O)c1ccccc1NC(=O)CC(C)CC(=O)O (centres unmarked) | 10.9
41 | COc1ccc(C(=O)N[C@H](C(=O)NCc2ccc(C)cc2)C(C)C)cc1 | 7.17
42 | CCOC(=O)C1(Cc2ccc(Cl)cc2)CCN(C(=O)c2cnc(C)cn2)CC1 | -57.1
43 | Cc1ccc(-c2ccc(C#N)c(=O)n2CC(=O)N(C)C)cc1 | 5.38
44 | CN1CCN(S(=O)(=O)c2ccc(Nc3cccc(Cl)c3)c([N+](=O)[O-])c2)CC1 | -20.7
